Laboratory results published in US12447159B2 (AELIS FARMA, priority 2018, dated 2025).

Legend:
[1] = target: T1, human CB1 (hCB1) receptor (Homo sapiens, UniProt P21554); assay: THC-induced decrease in cellular respiration, HEK-293 cells transiently transfected with hCB1; assay type: cell-based; conditions: THC 1 μM; oxygen consumption rate; HEK-293 transiently hCB1
T1 construct: expressed in transfected cells; host or cells: HEK-293
Method: After 15 min of incubation, THC (0, 1 μM, dissolved in EtOH 0.0034%) was added in the culture dishes for 30 minutes.
Cellular respiration was measured in a calibrated oxygraph equipped with a Clark electrode. Oxygen consumption (OC) rate was used to measure cellular respiration. […] 10 independent experiments were performed to obtain a n=10 per experimental condition.

[2] = tested on: THC-induced impairment of pre-pulse inhibition; assay: THC-induced impairment of pre-pulse inhibition (PPI); assay type: in vivo; conditions: per os 3 h before THC 10 mg/kg; mice
Method: PPI was measured using automated PPI cages allowing the automatic PPI protocol delivery and the recording of the animal's startle reactions. Each mouse (at least n=8 per group) was placed in the PPI test 60 minutes post-THC for 45 minutes.
The PPI test included different types of trials consisting in the presentation of either the background noise, the startle stimulus (S; 120 dB) alone, one of the prepulse (73 dB, 76 dB or 82 dB) stimuli alone or a combination of one of each prepulse stimulus followed by the startle stimulus (PPI-S). The startle response following the pulse presentation was recorded and an index of PPI was calculated (% PPI=100×(S−PPI-S)/S).

[3] = tested on: intravenous self-administration of WIN 55,212-2; assay: Intravenous self-administration of the CB1 agonist WIN 55,212-2; assay type: in vivo; conditions: per os 3 h before session; WIN 12.5 μg/kg/infusion iv; mice
Method: Before the start of the self-administration sessions, mice were implanted under anesthesia with catheters into the right jugular vein. […] When the animal inserted its nose (nose poke) in the active hole, it received an iv infusion of WIN (12.5 μg/kg). Mice were trained under a fixed ratio 1 (FRI) schedule of reinforcement.
Two hour daily self-administration sessions were conducted 6 days per week for 19 days. Mice received corn oil vehicle (2 ml/kg) per os on day 9 and 10 to be habituated to the oral gavage procedure.

[4] = tested on: reinstatement of THC-seeking; assay: THC priming-induced reinstatement of THC-seeking in non-human primates; assay type: in vivo, Squirrel monkeys (Saimiri Sciureus); conditions: per os 4 h before testing; THC priming 0.04 mg/kg iv; monkeys
Description: Four male Squirrel monkeys (Saimiri Sciureus) were used because they are the species in which THC self-administration can be the most reliably studied.
The monkeys used in the previous experiments underwent daily extinction sessions during which lever-presses led to vehicle infusions plus the visual cues previously paired with THC infusions, but not THC. […] THC priming injections were given immediately before the start of the test sessions. During testing, lever-presses (FR10) continued to produce only vehicle injections and the discrete cues.

[5] = tested on: anxiety- and depression-related behaviors in mice; assay: Repeated administration: anxiety- and depression-related behaviors (elevated plus maze, sucrose preference test); assay type: in vivo; conditions: 28 days once a day; 3pMBP 0.05, 5, 15 mg/kg per os; Rimo 10 mg/kg ip
Method: The EPM apparatus was made of four elevated arms arranged in a cross-like disposition, with two opposite arms being enclosed by walls and the two other arms being open. For all the experiments, after receiving the appropriate treatment mice were placed in the center of the EPM and let free to explore the maze for 5 minutes. The time spent and the number of entries into the open arms and closed arms were measured by an automatic videotracking system. A decrease in the percentages of visits and/or of the time spent in open arms is considered an index of increase in anxiety levels.
The sucrose preference test was performed in the home cage of the mice. Two identical bottles, one containing water and the other one containing a 2%-sucrose solution were placed in the hopper of each home cage. […] The volumes of water and of sucrose solutions drank by the mice were measured over two 1.30 h intervals, the first between 7.00 pm and 8.30 pm and the second between 8.30 pm and 10.00 pm. At each time point, the bottles were weighed and the intake volume was calculated by subtracting the initial bottle weight to the final bottle weight.
At day 26, mice were subjected to the EPM and at day 28 to the sucrose preference test.

[6] = Metabolic profiling of [3H]-3pMBP in plasma and excreta in the rat (Radio-HPLC); assay type: in vivo
Method: The metabolic profile was evaluated in plasma, in urines and feces and the radio-labelled metabolites were identified by their retention time using Radio-HPLC analysis. The results are expressed as % of the sum of all the detected peak areas.

CYP3A4 = assay: CYP induction (mRNA level); assay type: in vitro ADME; conditions: 10 nM, 100 nM and 1 μM
CYP 2C8 = CYP 2C8 (Homo sapiens, UniProt P10632); assay: CYP inhibition in human liver microsomes; conditions: 10 μM
Chain of CYP 2C8 (P10632 whole entry): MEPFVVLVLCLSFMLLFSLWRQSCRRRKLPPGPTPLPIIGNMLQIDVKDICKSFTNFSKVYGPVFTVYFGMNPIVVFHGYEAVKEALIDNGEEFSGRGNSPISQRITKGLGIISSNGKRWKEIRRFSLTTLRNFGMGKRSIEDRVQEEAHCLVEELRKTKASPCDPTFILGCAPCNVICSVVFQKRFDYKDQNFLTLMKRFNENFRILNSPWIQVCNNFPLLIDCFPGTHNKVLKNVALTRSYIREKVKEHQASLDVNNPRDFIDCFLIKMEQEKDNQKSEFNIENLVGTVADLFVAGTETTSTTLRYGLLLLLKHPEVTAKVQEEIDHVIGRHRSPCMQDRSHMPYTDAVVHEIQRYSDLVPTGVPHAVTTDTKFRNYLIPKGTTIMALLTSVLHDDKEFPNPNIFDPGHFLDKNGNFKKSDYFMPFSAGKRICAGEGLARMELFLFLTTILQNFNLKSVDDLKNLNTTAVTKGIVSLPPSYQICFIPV

CYP 2C19 = CYP 2C19 (Homo sapiens, UniProt P33261); assay: CYP inhibition in human liver microsomes; conditions: 10 μM
Chain of CYP 2C19 (P33261 whole entry): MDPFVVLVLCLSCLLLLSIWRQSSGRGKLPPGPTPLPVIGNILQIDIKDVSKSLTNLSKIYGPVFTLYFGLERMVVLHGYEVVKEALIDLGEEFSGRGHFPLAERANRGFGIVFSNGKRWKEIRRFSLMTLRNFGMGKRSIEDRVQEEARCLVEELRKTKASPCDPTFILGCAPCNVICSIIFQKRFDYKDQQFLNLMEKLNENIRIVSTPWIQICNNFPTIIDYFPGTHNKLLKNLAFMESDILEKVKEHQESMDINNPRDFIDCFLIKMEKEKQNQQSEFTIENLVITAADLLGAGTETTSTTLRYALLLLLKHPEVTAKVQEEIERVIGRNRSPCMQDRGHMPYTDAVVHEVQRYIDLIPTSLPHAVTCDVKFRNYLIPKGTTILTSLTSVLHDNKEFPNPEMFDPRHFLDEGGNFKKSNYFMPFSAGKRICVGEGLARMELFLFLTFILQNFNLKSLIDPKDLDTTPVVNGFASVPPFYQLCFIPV

CYP 2D6 = CYP 2D6 (Homo sapiens, UniProt P10635); assay: CYP inhibition in human liver microsomes; conditions: 10 μM
Chain of CYP 2D6 (P10635 whole entry): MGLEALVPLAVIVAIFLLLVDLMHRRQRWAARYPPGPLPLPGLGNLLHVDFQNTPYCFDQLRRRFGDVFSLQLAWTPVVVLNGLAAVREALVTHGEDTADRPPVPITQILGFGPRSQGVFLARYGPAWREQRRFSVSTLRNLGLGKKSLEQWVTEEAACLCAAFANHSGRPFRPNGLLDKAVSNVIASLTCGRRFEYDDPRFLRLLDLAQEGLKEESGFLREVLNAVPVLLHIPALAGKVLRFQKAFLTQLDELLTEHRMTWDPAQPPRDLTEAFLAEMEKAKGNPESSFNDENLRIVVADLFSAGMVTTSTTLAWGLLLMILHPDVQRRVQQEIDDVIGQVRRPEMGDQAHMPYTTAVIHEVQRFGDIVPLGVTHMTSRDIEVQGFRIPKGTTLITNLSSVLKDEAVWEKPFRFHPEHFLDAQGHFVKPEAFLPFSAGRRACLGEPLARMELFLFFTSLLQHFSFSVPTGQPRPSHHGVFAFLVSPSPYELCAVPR

[7] = tested on: THC-induced impairment of social interaction; assay: THC-induced impairment of social interaction; conditions: per os 3 h before THC 3 mg/kg ip; mice
OCT2 = OCT2 (Homo sapiens, UniProt O15244); assay: Cellular transporter inhibition, CHO cells (fluorometry); conditions: 10 μM
Chain of OCT2 (O15244 whole entry): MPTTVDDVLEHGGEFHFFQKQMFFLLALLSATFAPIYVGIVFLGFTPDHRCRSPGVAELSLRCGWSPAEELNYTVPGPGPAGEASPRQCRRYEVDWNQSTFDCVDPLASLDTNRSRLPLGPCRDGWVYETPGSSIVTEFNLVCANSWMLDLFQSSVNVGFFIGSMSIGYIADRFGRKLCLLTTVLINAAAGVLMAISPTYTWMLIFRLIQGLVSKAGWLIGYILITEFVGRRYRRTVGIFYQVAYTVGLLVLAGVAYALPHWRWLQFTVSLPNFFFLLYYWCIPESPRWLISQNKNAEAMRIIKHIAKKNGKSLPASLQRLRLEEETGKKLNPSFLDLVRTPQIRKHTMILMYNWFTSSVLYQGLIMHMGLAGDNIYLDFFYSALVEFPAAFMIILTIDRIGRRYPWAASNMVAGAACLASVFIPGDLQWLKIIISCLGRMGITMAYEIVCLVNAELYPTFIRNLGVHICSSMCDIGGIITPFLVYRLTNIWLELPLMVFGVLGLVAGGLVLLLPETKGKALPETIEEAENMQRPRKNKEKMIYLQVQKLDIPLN

OATP1B3 = OATP1B3 (Homo sapiens, UniProt Q9NPD5); assay: as above; conditions: 10 μM
Chain of OATP1B3 (Q9NPD5 whole entry): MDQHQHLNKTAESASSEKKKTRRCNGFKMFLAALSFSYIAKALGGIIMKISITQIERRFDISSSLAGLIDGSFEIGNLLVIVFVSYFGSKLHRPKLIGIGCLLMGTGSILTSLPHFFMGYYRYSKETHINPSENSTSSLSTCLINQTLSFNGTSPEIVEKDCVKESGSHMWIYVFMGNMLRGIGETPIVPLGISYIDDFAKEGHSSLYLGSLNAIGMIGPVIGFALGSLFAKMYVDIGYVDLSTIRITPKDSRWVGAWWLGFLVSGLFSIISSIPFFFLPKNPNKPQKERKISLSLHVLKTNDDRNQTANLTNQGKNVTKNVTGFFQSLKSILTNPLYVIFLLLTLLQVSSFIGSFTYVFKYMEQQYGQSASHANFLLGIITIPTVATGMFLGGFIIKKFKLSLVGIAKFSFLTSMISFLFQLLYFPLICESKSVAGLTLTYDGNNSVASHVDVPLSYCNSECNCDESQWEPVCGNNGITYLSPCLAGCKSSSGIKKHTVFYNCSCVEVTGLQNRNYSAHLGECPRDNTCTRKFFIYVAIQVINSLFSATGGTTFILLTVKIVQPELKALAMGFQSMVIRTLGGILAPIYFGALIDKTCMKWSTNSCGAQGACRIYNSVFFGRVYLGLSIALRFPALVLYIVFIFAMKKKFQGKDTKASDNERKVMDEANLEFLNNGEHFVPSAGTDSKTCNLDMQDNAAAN

[8] = tested on: THC-induced impairment of working memory; assay: THC-induced impairment of working memory (delayed matching-to-place Morris water maze); conditions: per os 3 h before THC 5 mg/kg ip; mice
healthy volunteers = assay: Mood, cognition and suicidality in healthy volunteers (Bond & Lader VAS, ARCI 49, POMS 65, C-SSRS); conditions: single 0.2, 0.6, 2 mg/subject; repeated 0.6 mg/subject once a day for 7 days

T1 sequence (P21554 whole entry): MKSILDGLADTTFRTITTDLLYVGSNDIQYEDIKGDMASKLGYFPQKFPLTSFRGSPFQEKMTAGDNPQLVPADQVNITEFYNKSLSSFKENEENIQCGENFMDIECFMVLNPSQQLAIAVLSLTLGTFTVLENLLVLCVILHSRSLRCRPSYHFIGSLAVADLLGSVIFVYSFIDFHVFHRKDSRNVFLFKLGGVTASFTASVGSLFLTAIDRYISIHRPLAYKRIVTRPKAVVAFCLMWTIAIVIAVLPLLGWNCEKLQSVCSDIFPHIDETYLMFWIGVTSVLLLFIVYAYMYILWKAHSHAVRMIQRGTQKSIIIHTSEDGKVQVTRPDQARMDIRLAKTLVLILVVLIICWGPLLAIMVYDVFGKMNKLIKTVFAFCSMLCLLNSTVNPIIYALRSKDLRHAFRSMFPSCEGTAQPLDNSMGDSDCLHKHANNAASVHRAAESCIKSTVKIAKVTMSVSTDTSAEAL

COc1ccc(CO[C@H]2CC[C@@]3(C)C(=CC[C@H]4[C@@H]5CC[C@H](C(C)=O)[C@@]5(C)CC[C@@H]43)C2)cc1 [3pMBP, 3β-(4-methoxybenzyloxy)pregn-5-en-20-one]
% inhibition [1]: 57% | ID100 [1]: 100 nM | % inhibition [2]: 100% | ID50 [2]: 4.5 µg/kg | ID100 [2]: 15 µg/kg | % inhibition [3]: 80% | ID50 [3]: 5 µg/kg | ID100 [3]: 15 µg/kg | % inhibition [4]: 80% | ID50 [4]: <1.5 µg/kg | ID100 [4]: ≤ 1.5 µg/kg | Percentage of time spent in the open arms of the elevated plus maze [5]: has no effect on the time spent in open arms | Percentage of visits in the open arms of the elevated plus maze [5]: has no effect on the visits in open arms | Sucrose intake (sucrose preference test) [5]: has no effect on sucrose intake | 3pMBP peak, % of all integrated peaks ([6]; rat plasma, 3 h post oral administration): 100% | 3pMBP peak, % of all integrated peaks ([6]; rat plasma, 6 h post oral administration): 78% | Presence of 3pMBP in the plasma ([6]; rat plasma, 24 hours): not present | 3pMBP peak, % of integrated peaks ([6]; rat urine, 0-6-hour interval): ≈ 30% | Presence of 3pMBP in the urine ([6]; rat urine, 6-24 h and 24-48 h): no 3pMBP was detected | 3pMBP detected in the urine ([6]; rat urine, each time interval): < 0.5 % dose | Expression of CYP3A4 (CYP3A4): did not increase the expression | Inhibition of CYP 2C8 activity (CYP 2C8): no significant inhibition | Inhibition of CYP 2C19 activity (CYP 2C19): no significant inhibition | Inhibition of CYP 2D6 activity (CYP 2D6): no significant inhibition | % inhibition [7]: 100% | ID50 [7]: 5 µg/kg | ID100 [7]: 15 µg/kg | Activity of OCT2 (OCT2): did not modify the activity | Activity of OATP1B3 (OATP1B3): did not modify the activity | % inhibition [8]: 100% | ID100 [8]: 150 µg/kg | General behavior of the subject (healthy volunteers): no modification in the general behavior | Psychometric tests (Bond & Lader VAS, ARCI 49, POMS 65, C-SSRS) (healthy volunteers): no modification for any of the psychometric tests performed
